Results: article PMC6212790
Some of the results follow. At the low end of the ranking, values are background and their order means little.

What follows are sequences tested against T1, GST-Rok-C97-191 (UniProt O34857) (assay: protein binding microarray). Conditions: Rok is a gene silencer of Bacillus subtilis; high values mean tight binding; most listed sequences are background and not binding sites; double strand, one strand shown.
T1 sequence: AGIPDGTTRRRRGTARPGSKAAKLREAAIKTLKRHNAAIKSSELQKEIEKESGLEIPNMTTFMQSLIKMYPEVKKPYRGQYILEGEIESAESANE
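Note: rank score from −0.5 (least bound) to 0.5 (best bound).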

Sequence | binding signal [E-score]
GTTACAAC | 0.267
AACGGCAG | -0.155
CAAGACTC | -0.206
ACTCTCAT | -0.0289
ATTTCGAC | 0.0925
CGTCCGTC | -0.267
ATAACGAC | -0.0184
AGGATTTG | -0.0211
AACTGCAA | 0.111
CTTCCCGC | -0.277
CCAGCGTA | -0.066
AATGCTAC | 0.25
CTGAGGTA | 0.0561
AGCCCTGG | -0.185
ATTTCTGG | 0.0299
AAGAAGCC | -0.116
CTATGGGC | 0.0692
ACCCAACC | 0.0339
GACCTATA | 0.228
CCGCGGAA | -0.0786
GCAAAGAC | -0.0775
ACGAGTTC | 0.0249
GCGAAGAC | -0.123
GGTGCGAA | -0.0566
CGTGGGGC | -0.25

Sequence | binding signal [E-score]
GTTCCCAA | -0.143
GTAAGTGA | 0.106
GCTAGGCA | -0.0675
CAAGGGAA | -0.0966
ATCAGCCG | -0.22
CATTGGCG | -0.169
ACATAAAA | 0.0739
CACTGCAC | -0.046
AAGTTCAC | 0.104
CAGTCGGG | -0.0155
AGTAGTCA | 0.259
GCTGGCAC | -0.243
AAAGGTCT | -0.123
ACGGCGAG | -0.16
CACAGCTG | -0.208
GGCGTAGA | 0.0104
ATGGTCAA | 0.137
ACGGCTCT | -0.158
ACTCATGA | -0.0428
ACGAATCA | 0.0562
ATGCTGCA | -0.0307
CCCAAATA | -0.0316
CTCTCCGA | -0.169
CAAGGTAA | 0.166
GCGCTCCC | -0.3

Sequence | binding signal [E-score]
CTTCCGTC | -0.242
AGCCCGGC | -0.172
AAACCTTC | 0.0022
AAACTTTA | -0.0256
AGGAGAAC | -0.154
CTTATTAA | 0.117
CCCAGCAA | -0.12
ATGTCCTA | -0.0529
AAAAGGGA | -0.218
AAGGGCAA | -0.0609
GGACGACC | -0.234
CCGCTGTA | -0.0671
AATTGGAT | 0.0104
GGTAGTAC | 0.268
CAGTACTG | 0.0988
TATCATCA | 0.118
AATTGCAT | 0.02
GGACGGAC | -0.309
AAGATATT | 0.269
CTAATAAC | 0.106
CCCTGCGA | -0.284
GATGGGCC | -0.279
ACAAGTTA | 0.285
ACGGACTA | -0.0168
ACCTAAGT | 0.0233

Sequence | binding signal [E-score]
CGCTTCGA | -0.109
AATACCGT | 0.303
ACCCTCAC | -0.16
GTTCTATA | 0.273
AAATACCC | 0.204
GGCGCCAA | -0.257
AATGTTTA | 0.133
AGAAGCTC | -0.0476
GCATGGAA | -0.0693
CGTGCGGA | -0.018
GATTCGCA | -0.242
ATATACCC | 0.127
CACCAGCA | -0.195
AAGGTCGT | 0.0698
GAGGATGC | -0.154
CTTAAACA | -0.0155
CTGCTTTC | -0.266
ATCCGTTA | -0.00635
AAGAGGAC | -0.0193
CGCGGCGC | -0.232
TAGAACTA | 0.368
ATCACTGA | 0.0402
AACGAGCG | -0.164
CATCAATG | -0.125
CTCGATAC | 0.0105

Sequence | binding signal [E-score]
AAGTTAGA | 0.0777
CGAAGATA | 0.302
AACGCACC | -0.0778
ACGCAGTG | -0.141
ACACGTAT | 0.0935
GAACCGAC | -0.0142
ATCGCGAC | -0.0187
GAAAACAA | 0.0717
AGAACGAT | 0.0213
AAACTGAC | 0.0063
ATTCCAAA | 0.0756
CAAATCGC | 0.0245
CCTCGAAC | 0.0111
ACTAGCAA | 0.254
ATCAAACG | 0.0383
CGCGCGAG | -0.0238
ACCTCGAG | -0.178
GATCGGCC | 0.00658
AGTAGACT | 0.185
ACTGAAAT | -0.176
TGGACTAA | 0.0374
AACTCCCA | -0.0305
GCGGGCTA | -0.127
ATATGCAC | 0.209
TAGGACCA | -0.171

Sequence | binding signal [E-score]
ATCATGTA | 0.208
GCATTACC | 0.0553
GCGTATCC | -0.121
AAGTGTTG | 0.0517
GTCAAACA | 0.00615
AGACTACG | -0.0817
CGGTTAAA | 0.087
ACCAGGGA | -0.213
AGAAAACC | -0.0485
AATTGATC | 0.0578
ATCCCGTA | 0.0373
ACAGAGGA | -0.0799
GCCAAAAA | -0.257
GGACACCA | -0.139
AACTCCGC | 0.0252
GCTGCTAA | -0.106
CTTAGGAC | -0.127
GATTAACA | 0.0584
GAAGTAGC | 0.248
CTCTACAC | 0.0535
AGTGGAAG | -0.0863
GTATCCGA | 0.052
ACCTAGGC | -0.211
GGGGACCA | -0.308
CATGGAAC | -0.0493

Sequence | binding signal [E-score]
AGAGATAA | 0.113
TCCTAAAA | 0.103
ATATGATC | 0.182
CGAATAAC | 0.0299
ACCATTCC | 0.0866
GCATATGA | -0.0541
GCTCGTGA | -0.285
ACCGGCAA | 0.0104
CACCGATA | 0.152
ACGCGTCC | -0.127
ATAGCTCA | 0.0879
AAGCGTGC | -0.247
GGGGGAAA | -0.0766
GTTGCGCA | -0.0627
ACTATCCC | 0.13
ATCGCGGC | -0.0217
AAGGATCC | -0.114
AACGAAGT | -0.078
ACATTAAA | 0.0634
CTTCAGGC | -0.0752
CTACTGAG | 0.136
ATAACAAC | 0.112
AGTGATTC | -0.111
ACGATATG | 0.0576
ATCGCCAG | -0.0202

Sequence | binding signal [E-score]
TGCCATAA | -0.0813
CCCGATCC | -0.147
AATCGCGG | -0.0191
CTCGATTA | 0.12
AACAAATT | 0.148
CCCCATAG | -0.0793
ACCGCTAG | 0.14
AAATGATT | -0.118
ACCGGGCA | -0.187
AGAATGCT | -0.108
CGCGCAAA | 0.0198
ATTCACTA | 0.174
TATCGACA | 0.184
ACAAGCTG | -0.259
AAATGATA | 0.305
TAGCTGGA | -0.112
CCGGGGCC | -0.282
AAACCGAA | 0.116
ATTCGTTG | 0.195
ATCATGCC | -0.0351
GTAGCCTA | -0.023
GCCGGGAA | -0.249
ACTCGTTG | -0.039
ATTCTTGC | 0.103
TAGCCCCA | -0.0287

Sequence | binding signal [E-score]
AATCTCGA | 0.0718
CCGCTGGA | -0.202
GGCAGGCA | -0.3
ATTACGGC | 0.0217
GACCTCTC | -0.162
ACGAACAT | 0.0324
GGCCTACC | -0.0395
GCCTGAGC | -0.202
CTTCGAAG | -0.084
CCTCAACG | -0.103
AGGTATCA | 0.24
AGCAAAGA | 0.00542
GTAGACCA | 0.0221
GTAAACAC | 0.113
ACCGATTA | 0.214
ATGATTGC | 0.0696
ATTCACCC | -0.0631
ATCTTCTA | 0.26
ACCGGCGA | -0.16
GTGCCTCA | -0.186
GTAAGACA | 0.0636
CCATTGGG | -0.0114
GTGGGATA | 0.061
CTGAGTAA | 0.0346
ACGAGGAA | -0.0591

Sequence | binding signal [E-score]
CACAATAC | 0.145
GTTGCAAA | -0.00796
CACTAGCA | -0.154
CGATCCGC | -0.0924
CATCACGG | -0.21
GCAGTTCA | -0.00198
AGACCGTA | -0.11
TCGTACCA | -0.0569
CGTCGACA | -0.00897
AACACTCT | 0.0196
CCTCTTCC | -0.172
ATAGCGCG | 0.278
ACATGCTA | 0.33
ACTCTTGA | -0.0447
ACATATGA | 0.00179
CGGAAGAA | -0.185
ACCGAGCG | -0.105
GAGCGTTA | 0.0369
GCTGTGAC | 0.0248
ATTGCCTG | -0.108
AGGTACCG | 0.0191
ACCATCGC | -0.0189
CCACCGCG | -0.199
AGAGGTAC | 0.0383
GCAAAGCA | -0.0549

Sequence | binding signal [E-score]
AAAGCGCC | -0.0581
CTCCGCTA | -0.137
CGTATAAA | 0.133
AGAGCGGA | -0.233
CACGACCA | -0.0663
GTGTATCA | 0.0722
ACTATGCG | 0.107
CCCACACG | -0.192
CATCTACG | -0.0119
AACTATCT | 0.294
CACAATGA | 0.00707
CCTAAATC | -0.11
GTCGCATA | 0.0707
AGCATTTG | -0.0352
GCTCTCGA | -0.114
CCACGGAC | -0.178
GACATTGC | -0.183
ATGGTAGG | 0.278
ATTACCTA | 0.337
CTACATAC | 0.274
AGGCCGGC | -0.232
AGGAATGC | -0.00187
CGGTTAAC | 0.0773
GCAAAATA | 0.242
TACACACA | 0.117

Sequence | binding signal [E-score]
GGCAGCTA | -0.0536
CTTACATA | 0.192
AGCACCAA | -0.0808
ACCCTGAC | -0.303
CCCTCTGC | -0.279
AACACTGT | 0.147
GCCTGGCA | -0.319
ACTACGGA | 0.164
GACGCTCC | -0.127
CCTATGAG | -0.0807
ACCGCTGG | 0.0107
ACTGGTAA | 0.261
AATCCACG | 0.104
AGCGCGAA | 0.212
ATATTAAC | 0.296
CTGCGCCA | -0.107
CTTCCGCA | -0.0961
CAACGAGC | -0.151
GTACAATA | 0.251
GGGGTTAC | -0.239
AAGTTGGG | -0.00229
AAAGCTCT | -0.0949
AACTGCTA | 0.0364
AGGGTACT | 0.118
CGTGGTGA | -0.0886

Sequence | binding signal [E-score]
ATAAGACA | 0.00737
CGCAGCCA | -0.175
GACGGGAC | -0.223
AATGGTCC | -0.073
CCATGAGG | -0.0423
CGAATGGA | 0.0881
ATGTTGCC | -0.161
AGAGATGG | -0.123
AAGGGCGT | -0.132
GTCTTCTA | 0.125
CGTGGCAA | -0.112
ATTCACGA | 0.136
GATGTAAC | 0.092
AGGTGATG | -0.171
ACACAATG | -0.0401
ACTACTAT | 0.46
AATACGGC | 0.0504
ACTGACCC | -0.13
AGGCAGGC | -0.357
GGGTCCTA | -0.0419
CTGTTCTA | 0.0964
AGTTTGGA | 0.178
CATAGAGC | -0.181
AAAGGCGT | -0.0871
GCTATTAC | 0.285

Sequence | binding signal [E-score]
GCAGCTAA | 0.0158
ATCGACGC | -0.0747
CCATTATC | 0.15
TCGAGGAA | -0.0145
ACGTCTGG | -0.225
ATACCAAG | 0.0191
ACGCCCCC | -0.315
CCATGCGG | -0.0268
CCGTGGTA | -0.0158
GTTCCCCA | -0.234
GTCCCCCA | -0.199
CTAGCACC | 0.0257
AACGTACT | 0.201
CGAACAGA | 0.133
AAGTTCTG | 0.132
GAATGTCC | -0.074
CTACATGC | 0.305
ACTGTTCC | -0.0604
AGACAGAA | -0.0135
